These results are taken from paper PMC3352935, “Enzymatic Analysis of Recombinant Japanese Encephalitis Virus NS2B(H)-NS3pro Protease with Fluorogenic Model Peptide Substrates” (PLoS ONE, 2012).

“And” between values parts separate entries of the source, which are not always exact repeats. Equal entries are not always repeated. Square brackets hold non-standard residues; d marks the D form. Peptide text beside a SMILES is read from it. * marks the point of attachment. AMC = Cc1cc(=O)oc2cc(N*)ccc12; Nle = CCCC[C@H](N)C(=O)O; Boc = CC(C)(C)OC(=O)*; nY = not defined here; Bz = O=C(c1ccccc1)*

One experiment has as its target T1, JEV NS2B(H)-NS3pro (Japanese encephalitis virus, UniProt P32886, DEL1469-1493).
T1 construct: PCR-amplify the NS2B(H) region (amino acids 51–95 and 121–131); The N-terminal one-third (180 residues) of NS3 represents the protease domain NS3(pro); made in house; host or cells: E. coli (the text names both C41 and BL21), vector pTrcHisA
Description: Enzymatic activity assay with fluorogenic peptide substrates (Michaelis-Menten kinetics). Type of experiment: biochemical. The settings on record: 0.5 µM enzyme, 50 mM Tris-HCl pH 9.5, 30% glycerol, 37°C, inner filter effect corrected, mean of three experiments; for K m: substrate 2.5-1500 µM.

The target of experiment [1] is JEV NS2B(H)-NS3pro protease (Japanese encephalitis virus (genotype III strain JaOArS 982)).

Consider `CCCC[C@H](NC(C)=O)C(=O)N[C@@H](CCCCN)C(=O)N[C@@H](CCCNC(=N)N)C(=O)N[C@@H](CCCNC(=N)N)C(=O)Nc1ccc2c(C)cc(=O)oc2c1` [Ac-nKRR-amc] (Ac-[Nle]KRR-{AMC}), for which, on JEV NS2B(H)-NS3pro, the k cat amounted to 0.01178 ± 0.00054 s⁻¹, the “k cat/K m” value stood at 368.13 ± 17.0 M⁻¹ s⁻¹ and the K m came to 32 ± 2.5 µM.

In the case of `Cc1cc(=O)oc2cc(NC(=O)[C@H](CCCNC(=N)N)NC(=O)[C@H](CCCNC(=N)N)NC(=O)CNC(=O)OC(C)(C)C)ccc12` [Boc-GRR-amc], at JEV NS2B(H)-NS3pro, the k cat was 0.0037 ± 0.0002 s⁻¹; the “k cat/K m” value amounted to 30.08 ± 2.7 M⁻¹ s⁻¹; the K m is 123 µM and 123 ± 11.6 µM.

For `Cc1cc(=O)oc2cc(NC(=O)[C@H](CCCNC(=N)N)NC(=O)[C@H](CCCNC(=N)N)NC(=O)[C@H](CC(C)C)NC(=O)OC(C)(C)C)ccc12` [Boc-LRR-amc] (Boc-Leu-Arg-Arg-{AMC}), at JEV NS2B(H)-NS3pro, the “k cat/K m” value is 3.74 ± 0.3 M⁻¹ s⁻¹ and 3.74 M⁻¹ s⁻¹; the K m came out at 40 ± 5.0 µM.

`CCCC[C@H](NC(=O)c1ccccc1)C(=O)N[C@@H](CCCCN)C(=O)N[C@@H](CCCNC(=N)N)C(=O)N[C@@H](CCCNC(=N)N)C(=O)Nc1ccc2c(C)cc(=O)oc2c1` [Bz-nKRR-amc] (Bz-[Nle]KRR-{AMC}): at JEV NS2B(H)-NS3pro, the k cat is 0.01 ± 0.00023 s⁻¹, the “k cat/K m” value is 500.00 ± 11.3 M⁻¹ s⁻¹ and the K m stood at 20 ± 1.34 µM.

Take Abz-(R)4SAGnY-amide: at JEV NS2B(H)-NS3pro, the k cat is 0.0004 ± 0.000014 s⁻¹; the “k cat/K m” value is 19 M⁻¹ s⁻¹ and 19.000 ± 1.85 M⁻¹ s⁻¹; the K m amounted to 20.91 ± 2.04 µM.

Turning to Ac-nKRR-amc (peptide), in experiment [1], the K m of hydrolysis (release of amc), 0.5 µM enzyme, 37°C, 50 mM Tris-HCl pH 9.5, 30% glycerol came out at 32 µM.

In turn, Boc-GRR-amc (peptide) showed a K m of hydrolysis (release of amc), 0.5 µM enzyme, 37°C, 50 mM Tris-HCl pH 9.5, 30% glycerol in experiment [1] of 123 µM.

With Boc-LRR-amc (peptide), the K m of hydrolysis (release of amc), 0.5 µM enzyme, 37°C, 50 mM Tris-HCl pH 9.5, 30% glycerol in experiment [1] was 40 µM.

Turning to Bz-nKRR-amc (peptide), the K m of hydrolysis (release of amc), 0.5 µM enzyme, 37°C, 50 mM Tris-HCl pH 9.5, 30% glycerol in experiment [1] turned out to be 20 µM.

Turning to Pyr-RTKR-amc, at JEV NS2B(H)-NS3pro, the k cat is 0.0176 s⁻¹ and 0.0176 ± 0.0008 s⁻¹; the K m is 9 µM and 9.0 ± 0.82 µM.

Take Pyr-RTKR-amc (peptide): the K m of hydrolysis (release of amc), 0.5 µM enzyme, 37°C, 50 mM Tris-HCl pH 9.5, 30% glycerol in experiment [1] was 9 µM.

B1: Abz-(R)4SAGnY-amide (peptide)
peptide: Abz-RRRRSAG[nY]-NH2
modifications: reading uncertain
B1 showed a K m of hydrolysis (internally quenched fluorescence), 0.5 µM enzyme, 37°C, 50 mM Tris-HCl pH 9.5, 30% glycerol in experiment [1] of 20.9 µM.
